# Experimental data taken from PubChem BioAssay AID485297 (National Center for Advancing Translational Sciences (NCATS), 2010).
# Screen size: about 320,000 compounds; about 9,100 (2.8%) were called active. Inconclusive results, whose numbers are uncertain, are shown with a selection of clear calls. Calls follow the shape of the dose curve; as a rule, active = well fitted activation curve with a large enough effect; inconclusive = small, poorly fitted or top-dose-only effect; inactive = no such curve, though single readings can be large or run the other way. Potencies of inconclusive entries are left out as doubtful fits.
# Experiment: qHTS Assay for Rab9 Promoter Activators; also: nearly all actives have a fitted effect of over 60% in size
# Details: Huh7 Rab9 promoter-luciferase reporter, luminescence, 24 h; series mostly up to 9.22 µM
# Outline: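 Luminescence from Amplite-detected luciferase (10 minutes, ambient) reports Rab9 promoter activation. Before that, stable Rab9-luciferase Huh7 cells (1500/well, reduced-serum OP-MEM I plus 10% FBS) were exposed to compound for 24 hours at 37C.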
# Potency is read from the fitted curve at half-maximal effect; tags tell the direction and shape of the fitted curve.
row,SMILES,Potency
1,CNC(C)C#Cc1ccc2oc3cccc(OC)c3c(=O)c2c1 (stereo unspecified),"inconclusive [activator, single point]"
2,CC(C)(C)c1ccc(C(=O)NNC(=O)C2CCCCC2)cc1,"inconclusive [activator, partial curve]"
3,Cc1ccccc1NC(=O)c1cnn(-c2ccccc2)c1C,"inconclusive [activator, partial curve]"
4,O=C(N/N=C/c1ccccc1[N+](=O)[O-])c1ccc2c(c1)OCCO2,"inconclusive [activator, full curve, poor fit]"
5,CCOc1ccc2nc(NC(=O)c3cccnc3)sc2c1,active: 0.891 µM
6,Cc1ccc(/C=N/Nc2ccc(F)cc2F)s1,"inconclusive [activator, partial curve]"
7,N#CC(=C1CCCC1)c1nc(-c2ccc(Cl)cc2)cs1,active: 3.16 µM
8,NC(=O)c1cc(Cl)ccc1OCC(=O)Nc1ccc2c(c1)OCO2,active: 1.26 µM
9,O=C(O)c1ccc(N/N=C/c2ccc(-c3cccc(Cl)c3)o2)cc1,active: 0.316 µM
10,CCOc1ccc2nc(SCc3ccc(OC)cc3)sc2c1,inactive
11,COc1ccc(S(=O)(=O)N2CCOC23CCN(S(=O)(=O)c2ccc(Cl)cc2)CC3)cc1,inactive
12,[O-]/[N+](=C\c1ccncc1)c1ccc(Br)cc1,"inconclusive [activator, single point]"
13,Cc1ccc(-c2nc(-c3ccccn3)no2)cc1[N+](=O)[O-],active: 0.316 µM
14,COCCCNC(=O)CCC(=O)Nc1ccc2nc(N3CCOCC3)cc(C)c2c1,"inconclusive [activator, single point]"
15,CSc1nc(N)nc(SCC(=O)c2ccc(C)cc2)c1C#N,"inconclusive [activator, partial curve]"
16,COc1ccc(NC(=O)/C=C/c2c(Cl)nc3ccccn23)cc1,"inconclusive [activator, single point]"
17,Cc1nn(C(C)C(=O)O)c(=O)c2c1sc1ccccc12 (stereo unspecified),"inconclusive [activator, partial curve]"
18,COC(=O)CNc1nc(OC)nc(N(C)C)n1,inactive
19,CC(=Nc1ccccc1)c1sc2ccccc2c1O,"inconclusive [activator, single point]"
20,CC(=O)C[C@H](O)CC(=O)[C@H]1OC(=O)[C@H](C)C/C=C\Cc2ccccc21,inactive
21,O=C(CSCc1ccccc1Cl)N1CCN(c2ccccn2)CC1,"inconclusive [activator, single point]"
